About 6,400 (1.6%) of roughly 410,000 compounds were called active. Inconclusive results, whose numbers are uncertain, are shown with a selection of clear calls. The call rests on the fitted dose curve; in most records, active means well fitted inhibition curve with a large enough effect; inconclusive means small, poorly fitted or top-dose-only effect; inactive means no such curve, though single readings can be large or run the other way. No potency is given beside an inconclusive call; the fits are too rough.
The molecules below were run against Glucagon-like peptide 1 receptor (Homo sapiens) (UniProt P43220) (assay: qHTS of GLP-1 Receptor Inverse Agonists (Inhibition Mode)). Conditions: HEK293 GLP-1R CRE-luciferase, luminescence, 24 h, GLP-1R form is constitutively active; activity change, negative = inhibition: at 38.3 µM (top of the series) unless noted.
Chain of UniProt P43220 (P43220 whole entry, looked up): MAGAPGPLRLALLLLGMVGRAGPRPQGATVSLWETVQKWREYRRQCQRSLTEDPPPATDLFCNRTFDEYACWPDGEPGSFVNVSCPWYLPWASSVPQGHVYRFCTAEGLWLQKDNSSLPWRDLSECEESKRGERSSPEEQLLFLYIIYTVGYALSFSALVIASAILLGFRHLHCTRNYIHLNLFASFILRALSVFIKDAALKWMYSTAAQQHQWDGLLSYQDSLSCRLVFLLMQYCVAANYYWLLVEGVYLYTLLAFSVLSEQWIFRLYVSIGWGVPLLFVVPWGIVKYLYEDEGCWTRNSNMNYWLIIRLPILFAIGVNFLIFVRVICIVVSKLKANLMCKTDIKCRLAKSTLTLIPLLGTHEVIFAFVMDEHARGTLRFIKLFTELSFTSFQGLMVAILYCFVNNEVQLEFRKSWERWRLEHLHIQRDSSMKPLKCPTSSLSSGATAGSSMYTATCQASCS
Method in brief: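 Constitutively active GLP-1R drives a cAMP-responsive luciferase in stably transfected HEK293 cells; test compounds are added after overnight (12 h) attachment and left 24 hr, and signal loss in luminescence marks inhibition.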
Further: nearly all actives have a fitted effect of over 55% in size.
On the % scale 0 is the no-effect control and ±100 the full control effect; potency means the concentration at half of the fitted maximal effect; tags describe the fitted curve by direction and shape.

| SMILES | activity change, negative = inhibition | Potency |
| --- | --- | --- |
| CCOc1ccc2nc(NC3=NC(c4ccc(OC)cc4)CC(=O)N3)nc(C)c2c1 (centres undefined) | inactive: 89.2% |  |
| COc1cccc(CN2CCN(c3nc4nonc4nc3NC3CC3)CC2)c1 |  | inconclusive [inhibitor, partial curve] |
| Cn1ccc2cc(S(=O)(=O)N3CCCC(C(=O)NCc4ccccc4F)C3)ccc21 (centres undefined) |  | inconclusive [inhibitor, single point] |
| CC(C)Oc1cccc(C(=O)Nc2ccccc2N2CCOCC2)c1 |  | inconclusive [inhibitor, partial curve, poor fit] |
| COc1ccc(-n2ncc3c2ncn2nc(-c4ccc(OC)c(OC)c4)nc32)cc1 | inactive: 5.96% |  |
| CC1=C(C(=O)Nc2ccccc2)C(c2ccc(Br)cc2)n2nc(CCCO)nc2N1 (centres undefined) | inactive: 6.71% |  |
| CCOc1ccc(CN2CCN(Cc3cnc(-c4ccccc4)s3)CC2CCO)cc1 (centres undefined) |  | inconclusive [inhibitor, single point] |
| O=S(=O)(Nc1nc2ccccc2nc1Cl)c1ccc(Cl)cc1 |  | inconclusive [inhibitor, single point] |
| CN1CCN(C(=S)c2ccc(-c3cc(Cl)ccc3Cl)o2)CC1 |  | inconclusive [inhibitor, single point] |
| Cc1cc(C)c(NS(=O)(=O)c2ccc3c(c2)CC(C)N3C(=O)C2CCC2)c(C)c1 (centres undefined) |  | inconclusive [inhibitor, single point] |
| NCCOc1ccc(C23CC4CC(CC(C4)C2)C3)cc1 |  | inconclusive [inhibitor, single point] |
| COc1ccc(Cn2nnnc2C(c2ccc(N(C)C)cc2)N2CCC(C(N)=O)CC2)cc1 (centres undefined) | inactive: 13.3% |  |
| Cc1ccc(C2=NN(C(=O)CSc3nccn3C)C(c3ccco3)C2)cc1 (centres undefined) |  | inconclusive [inhibitor, partial curve] |
| COCC(=O)N(C)CC1CCCN(CCc2ccccc2OC)C1 (centres undefined) | inactive: -23.9% |  |
| CC(C)C(=O)N1CCN(c2c(Cl)cccc2[N+](=O)[O-])CC1 |  | inconclusive [inhibitor, single point] |
| COc1ccccc1Nc1nc(-c2ccc(F)cc2)c2c(n1)-c1ccccc1OC2 | inactive: 5.56% |  |
| COc1ccc(CC(=O)N(c2ccccc2)c2nc(C)cs2)cc1 |  | inconclusive [inhibitor, single point] |
| COc1ccccc1NC(=O)c1c(C)cc(C)nc1SCC(=O)Nc1ccc(C)c(C)c1 |  | inconclusive [inhibitor, partial curve, poor fit] |
| Nc1n[nH]c(C2CC2)c1N=Nc1ccc(Cl)cc1 |  | inconclusive [inhibitor, single point] |
| CCNC(=S)N/N=C/c1cccc(OCc2c(F)cccc2Cl)c1 |  | active: 10 µM |
| CCn1cc(C(=O)Nc2ccc(OC)c(S(=O)(=O)N3CCCCC3)c2)c(=O)c2ccc(C)nc21 | inactive: 8.69% |  |
| CC(C)(C)C(=O)NC(=S)Nc1ccccc1N1CCCC1 |  | inconclusive [inhibitor, single point] |

| SMILES | activity change, negative = inhibition | Potency |
| --- | --- | --- |
| CC(=O)N/C(=N\c1nc(C)cc(C)n1)Nc1ccc2ccccc2c1 |  | inconclusive [inhibitor, partial curve, poor fit] |
| COc1cc(OC)cc(-c2c(-c3ccc(F)cc3)c3cc(Br)ccc3n2C)c1 |  | active: 7.94 µM |
| Cc1ccc(C(=O)N2CCc3ccccc32)cc1 |  | inconclusive [inhibitor, single point] |
| Nc1ccc(C(=O)NC2CCSc3ccccc32)cc1[N+](=O)[O-] (centres undefined) |  | inconclusive [inhibitor, single point] |
| CCOC(=O)c1c(NC(=O)CCC(=O)NCc2ccco2)sc2c1CCCC2 |  | inconclusive [inhibitor, partial curve, poor fit] |
| C#Cc1ccc([C@H]2C=C(C(=O)NCc3ccccc3)O[C@@H](OCc3ccc(CO)cc3)C2)cc1 |  | inconclusive [inhibitor, single point] |
| Nc1nc(COc2ccc(F)cc2Cl)nc(N2CCCCC2)n1 |  | inconclusive [inhibitor, partial curve, poor fit] |
| CCN1CCC(NC(=O)Nc2cccc(C(F)(F)F)c2)CC1 |  | inconclusive [inhibitor, single point] |
| CCN(CC)S(=O)(=O)c1ccc(NC(=O)CN(c2cccc(C)c2)S(C)(=O)=O)cc1 |  | inconclusive [inhibitor, partial curve, poor fit] |
| Cc1ccc(CNC(=O)c2cc(C)nn2-c2ccccc2)cc1 |  | inconclusive [inhibitor, single point] |
| CC(=O)/C(N=Nc1ccc2c(c1)OCCO2)=C(\C)O |  | inconclusive [inhibitor, full curve, poor fit] |
| FCCCOc1ccc(/C=N/OCc2ccc(Cl)cc2)cc1 |  | inconclusive [inhibitor, single point] |
| Cc1cccc(C(=O)NC(C(=O)Nc2nc(-c3ccccn3)cs2)C(C)C)c1 (centres undefined) |  | inconclusive [inhibitor, partial curve, poor fit] |
| CCCOc1ccc([N+](=O)[O-])cc1C1NC(=S)NC(c2ccccc2)=C1C(=O)OCC (centres undefined) |  | inconclusive [inhibitor, partial curve, poor fit] |
| CCCCN(C=O)c1c(CC)nc2ccc(C(=O)NCc3ccccc3OC)cn12 | inactive: 10.8% |  |
| CCc1cccc(C)c1NC(=O)C1CCN(S(=O)(=O)c2c(C)noc2/C=C/c2c(C)cc(C)cc2C)CC1 | inactive: 17.4% |  |
| N#Cc1nc(COc2ccccc2Cl)oc1NCCc1ccccc1 |  | inconclusive [inhibitor, single point] |
| CSCC[C@H](NC(=O)OC(C)(C)C)C(=O)N/N=C/c1cccc2cccnc12 |  | inconclusive [inhibitor, single point] |
| O=C(CCC1CCCC1)N1CCc2c([nH]c3ccccc23)C1c1ccc(F)cc1 (centres undefined) |  | inconclusive [inhibitor, partial curve, poor fit] |
| Cc1ccc(Cl)cc1NC(=S)N(Cc1cccs1)C1CCCC1 |  | inconclusive [inhibitor, single point] |
| CCC(C)(C)C1CCc2[nH]nc(C(=O)NCC3CC3)c2C1 (centres undefined) |  | inconclusive [inhibitor, single point] |
| COc1ccc(OC)c(C2C(C(=O)Nc3nc4ccccc4s3)=C(C)NC3=C2C(=O)CCC3)c1 (centres undefined) |  | inconclusive [inhibitor, single point] |

| SMILES | activity change, negative = inhibition | Potency |
| --- | --- | --- |
| O=C(Cc1ccccc1)N(Cc1cccnc1)c1nc2c(Cl)cccc2s1 |  | inconclusive [inhibitor, partial curve, poor fit] |
| O=C(NCCCc1ccccc1)C(=O)NCC1OCCN1S(=O)(=O)c1cc(F)ccc1F (centres undefined) |  | inconclusive [inhibitor, single point] |
| Cc1ccc(CNCC(O)(c2ccccc2)c2ccc(Cl)cc2)cc1 (centres undefined) |  | inconclusive [inhibitor, partial curve, poor fit] |
| Cc1ccc(Nc2ccc3cc(S(=O)(=O)N4CCCCC4)ccc3n2)cc1F |  | active: 2.82 µM |
| Cc1ccc(Sc2cnn(-c3ccccc3)c(=O)c2Cl)cc1 |  | inconclusive [inhibitor, partial curve, poor fit] |
| Cc1ccc(C)c(SCC(=O)Nc2ccc(C)c(S(=O)(=O)N3CCOCC3)c2)c1 |  | inconclusive [inhibitor, partial curve, poor fit] |
| CCOC(=O)c1ccc(NC(=O)CSc2nc(-c3ccc(OC)cc3)cc(C(F)(F)F)c2C#N)cc1 | inactive: 4.06% |  |
| CCC1Oc2ccccc2N(CC(=O)NCCCN2CCCCC2CC)C1=O (centres undefined) |  | inconclusive [inhibitor, partial curve, poor fit] |
| CC(C)N1CC2(CC(c3ccccc3C(F)(F)F)=NO2)CN1C(=O)c1ccc(C(C)(C)C)cc1 (centres undefined) |  | inconclusive [inhibitor, partial curve, poor fit] |
| Cc1ccc(-c2nc(-c3ccccn3)no2)cc1[N+](=O)[O-] |  | inconclusive [inhibitor, partial curve] |
| O=C(NCCCN1CCOCC1)c1ccc(S(=O)(=O)Nc2cccc(C(F)(F)F)c2)cc1 |  | inconclusive [inhibitor, partial curve] |
| COc1ccc(-n2cnc3scc(-c4ccccc4)c3c2=O)cc1 |  | inconclusive [inhibitor, single point] |
| O=C(COc1ccc(Cl)cc1)N1N=C(c2cccs2)CC1c1ccco1 (centres undefined) |  | inconclusive [inhibitor, single point] |
| O=C(CCCc1ccccc1)NCc1ccc(Cl)cc1 |  | inconclusive [inhibitor, partial curve, poor fit] |
| O=C(Nc1ccc(F)cc1)c1cccc2ccccc12 |  | inconclusive [inhibitor, single point] |
| CNC(=S)N1N=C(c2ccc(Br)cc2)CC1c1ccc(N(C)C)cc1 (centres undefined) |  | inconclusive [inhibitor, partial curve, poor fit] |
| O=C(NCCN1CCN(c2ccccc2)CC1)C1(S(=O)(=O)c2ccc(Cl)cc2)CC1 | inactive: -4.55% |  |
| Cc1onc(-c2ccccc2)c1C(=O)Nc1nnc(C(C)C)s1 |  | inconclusive [inhibitor, full curve] |
| O=C(CCc1ccccc1)NC(=S)Nc1ccccc1Br |  | inconclusive [inhibitor, single point] |
| Cc1sc(NC(=O)C2CCCCC2)c(C#N)c1-c1ccccc1 |  | inconclusive [inhibitor, partial curve, poor fit] |

Reference: PubChem BioAssay AID624417 (National Center for Advancing Translational Sciences (NCATS), 2012)
